We go through 69 cell lines from the supplement of paper PMC4967469.

Broadly, the IC50 is the concentration needed to halve the response being measured.

IC50 is the fitted dose that halves viability relative to control wells, and lower means more sensitive; a fit beyond the top or the lowest dose is shown as a bound at that dose. AUC is the area under the same curve over the 256-fold range up to the top dose, as a fraction: 1 means no effect, lower means more sensitive. Drugs with an entry number were screened twice under separate entries, and the two screens often disagree.

Compound in this test: CS(=O)(=O)N1CCN(Cc2cc3nc(-c4cccc5[nH]ncc45)nc(N4CCOCC4)c3s2)CC1 [GDC0941]
Description: Viability of human cancer cell lines after 72 h of drug (GDSC screen). The settings on record: screen: GDSC drug entry 1058. Here is the method: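 Human cancer cell lines in 384-well plates, medium with 10% serum, drug for 72 h over a 256-fold dose range (nine 2-fold or five 4-fold steps up to the top dose). Adherent lines were fixed and stained with the nucleic acid dye Syto60, suspension lines read with resazurin; signal relative to control wells, capped at 0 and 100%. One two-parameter sigmoid per drug and line, fitted in a mixed model over all curves with the slope shared within a line.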
With “8-MG-BA (glioma, adherent, top dose 4 µM)”, the AUC is 0.879 and the IC50 worked out at 3.65 µM.
On to “22RV1 (prostate, adherent, top dose 4 µM)”, for which the AUC turned out to be 0.757 and the IC50 amounted to 1.69 µM.
For the cell line “42-MG-BA (glioma, adherent, top dose 4 µM)”, the AUC amounted to 0.746 and the IC50 was 1.34 µM.
Consider “201T (lung adenocarcinoma, adherent, top dose 4 µM)”, for which the AUC stood at 0.666 and the 50% inhibitory concentration (IC50) was 0.819 µM.
In the case of “451Lu (melanoma, adherent, top dose 4 µM)”, the AUC is 0.923 and the IC50 is more than 4 µM.
Consider “639-V (bladder, adherent, top dose 4 µM)”, for which the AUC worked out at 0.651 and the IC50 was 0.61 µM.
Turning to “647-V (bladder, adherent, top dose 4 µM)”, the AUC was 0.856 and the 50% inhibitory concentration (IC50) stood at 3.26 µM.
Consider “697 (lymphoblastic leukaemia, suspension, top dose 4 µM)”, for which the AUC stood at 0.399 and the IC50 was determined as 0.14 µM.
The matching figures for 786-0 (kidney, adherent, top dose 4 µM): 0.845 and 2.54 µM.
With 5637 (bladder, adherent, top dose 4 µM), the AUC was determined as 0.835 and the IC50 came to 2.28 µM.
Consider “8305C (thyroid, adherent, top dose 4 µM)”, for which the AUC was found to be 0.822 and the IC50 amounted to 3.34 µM.
With “8505C (thyroid, adherent, top dose 4 µM)”, the AUC came to 0.908 and the IC50 was more than 4 µM.
For the cell line “23132-87 (stomach, adherent, top dose 4 µM)”, the AUC is 0.672 and the IC50 turned out to be 0.766 µM.
For the cell line “A3-KAW (B-cell lymphoma, suspension, top dose 4 µM)”, the AUC is 0.993 and the IC50 is more than 4 µM.
Turning to “A4-Fuk (B-cell lymphoma, suspension, top dose 4 µM)”, the AUC was determined as 0.51 and the IC50 amounted to 0.266 µM.
“A101D (melanoma, adherent, top dose 4 µM)”: the AUC was found to be 0.671 and the IC50 was determined as 0.842 µM.
As to “A253 (head and neck, adherent, top dose 4 µM)”, the AUC is 0.975 and the IC50 is more than 4 µM.
Turning to A388 (skin, adherent, top dose 4 µM), the AUC was determined as 0.633 and the IC50 turned out to be 0.616 µM.
A431 (skin, adherent, top dose 4 µM): the AUC is 0.794 and the IC50 amounted to 1.75 µM.
The matching figures for A498 (kidney, adherent, top dose 4 µM): 0.709 and 1.33 µM.
For the cell line “A673 (rhabdomyosarcoma, adherent, top dose 4 µM)”, the AUC was found to be 0.982 and the IC50 is more than 4 µM.
Consider A704 (kidney, adherent, top dose 4 µM), for which the AUC is 0.755 and the IC50 is 1.32 µM.
With “A2780 (ovary, semi-adherent, top dose 4 µM)”, the AUC was found to be 0.844 and the IC50 was 3 µM.
As to AGS (stomach, adherent, top dose 4 µM), the AUC turned out to be 0.627 and the IC50 was determined as 0.538 µM.
With “ALL-PO (lymphoblastic leukaemia, suspension, top dose 4 µM)”, the AUC amounted to 0.513 and the IC50 came out at 0.272 µM.
For “ALL-SIL (T-cell leukaemia, suspension, top dose 4 µM)”, in that order: 0.746 and 1.12 µM.
The matching figures for “AM-38 (glioma, semi-adherent, top dose 4 µM)”: 0.925 and more than 4 µM.
Consider “ARH-77 (myeloma, suspension, top dose 4 µM)”, for which the AUC is 0.987 and the IC50 is more than 4 µM.
Take “ASH-3 (thyroid, adherent, top dose 4 µM)”: the AUC was 0.755 and the IC50 was 1.36 µM.
On to “ATN-1 (T-cell lymphoblastic leukaemia, suspension, top dose 4 µM)”, for which the AUC is 0.489 and the IC50 is 0.234 µM.
On to AU565 (breast, adherent, top dose 4 µM), for which the AUC came out at 0.663 and the IC50 was 0.753 µM.
In the case of “AsPC-1 (pancreas, adherent, top dose 2 µM)”, the AUC is 0.837 and the IC50 is more than 2 µM.
“BALL-1 (B-cell leukaemia, suspension, top dose 4 µM)”: the AUC was 0.883 and the IC50 is 2.32 µM.
Consider “BB30-HNC (head and neck, adherent, top dose 4 µM)”, for which the AUC is 0.633 and the IC50 turned out to be 0.576 µM.
In the case of “BB49-HNC (head and neck, adherent, top dose 4 µM)”, the AUC worked out at 0.734 and the half-inhibitory concentration (IC50) came to 1.56 µM.
The matching figures for “BC-1 (B-cell lymphoma, suspension, top dose 4 µM)”: 0.98 and more than 4 µM.
For “BCPAP (thyroid, adherent, top dose 2 µM)”, in that order: 0.975 and more than 2 µM.
With “BE2-M17 (neuroblastoma, adherent, top dose 4 µM)”, the AUC worked out at 0.919 and the IC50 is more than 4 µM.
The matching figures for “BE-13 (lymphoblastic leukaemia, suspension, top dose 4 µM)”: 0.857 and 2.92 µM.
As for “BFTC-905 (bladder, adherent, top dose 4 µM)”, the AUC worked out at 0.733 and the IC50 came out at 1.03 µM.
Turning to “BHT-101 (thyroid, adherent, top dose 4 µM)”, the AUC stood at 0.611 and the IC50 stood at 0.511 µM.
On to “BHY (head and neck, adherent, top dose 2 µM)”, for which the AUC was 0.872 and the IC50 is 1.92 µM.
As for “BICR10 (head and neck, adherent, top dose 4 µM)”, the AUC was 0.612 and the IC50 amounted to 0.534 µM.
For the cell line “BICR22 (head and neck, adherent, top dose 4 µM)”, the AUC was 0.675 and the IC50 amounted to 0.831 µM.
In the case of “BICR78 (head and neck, adherent, top dose 4 µM)”, the AUC came to 0.588 and the IC50 was 0.453 µM.
As for “BL-41 (Burkitt lymphoma, suspension, top dose 4 µM)”, the AUC is 0.837 and the IC50 is 1.83 µM.
Consider “BPH-1 (prostate, adherent, top dose 2 µM)”, for which the AUC is 0.626 and the IC50 came to 0.288 µM.
Take BT-20 (breast, adherent, top dose 4 µM): the AUC was determined as 0.764 and the IC50 came to 1.79 µM.
The matching figures for “BT-474 (breast, adherent, top dose 4 µM)”: 0.838 and 3.18 µM.
Consider “BT-483 (breast, adherent, top dose 4 µM)”, for which the AUC was 0.868 and the IC50 was more than 4 µM.
Consider “BV-173 (chronic myeloid leukaemia, suspension, top dose 4 µM)”, for which the AUC was 0.822 and the IC50 worked out at 1.98 µM.
Take “Becker (glioma, adherent, top dose 4 µM)”: the AUC was determined as 0.797 and the IC50 is 2.16 µM.
With “BxPC-3 (pancreas, adherent, top dose 4 µM)”, the AUC was determined as 0.855 and the IC50 was 3.81 µM.
For “C2BBe1 (large intestine, adherent, top dose 2 µM)”, in that order: 0.938 and more than 2 µM.
On to C3A (liver, adherent, top dose 4 µM), for which the AUC worked out at 0.988 and the IC50 was more than 4 µM.
With C32 (melanoma, adherent, top dose 4 µM), the AUC stood at 0.859 and the IC50 was 3.69 µM.
As to C-4-I (cervix, adherent, top dose 4 µM), the AUC was 0.686 and the IC50 is 0.871 µM.
Regarding “C-33-A (cervix, adherent, top dose 4 µM)”, the AUC was 0.919 and the IC50 is more than 4 µM.
“CA46 (Burkitt lymphoma, suspension, top dose 4 µM)”: the AUC was 0.899 and the IC50 is more than 4 µM.
For “CADO-ES1 (Ewing sarcoma, suspension, top dose 4 µM)”, the AUC stood at 0.95 and the IC50 is more than 4 µM.
As to “CAL-12T (non-small cell lung carcinoma, adherent, top dose 4 µM)”, the AUC was determined as 0.826 and the IC50 turned out to be 2.82 µM.
With “CAL-27 (head and neck, adherent, top dose 4 µM)”, the AUC turned out to be 0.784 and the IC50 came to 1.73 µM.
Take “CAL-29 (bladder, adherent, top dose 4 µM)”: the AUC was determined as 0.643 and the IC50 amounted to 0.644 µM.
With “CAL-33 (head and neck, adherent, top dose 4 µM)”, the AUC was determined as 0.456 and the IC50 stood at 0.189 µM.
With “CAL-39 (cervix, adherent, top dose 4 µM)”, the AUC turned out to be 0.782 and the concentration for half-maximal inhibition (IC50) was determined as 1.74 µM.
On to “CAL-54 (kidney, adherent, top dose 2 µM)”, for which the AUC was 0.776 and the IC50 amounted to 0.919 µM.
As for “CAL-62 (thyroid, adherent, top dose 4 µM)”, the AUC turned out to be 0.846 and the IC50 was 2.71 µM.
As to “CAL-72 (osteosarcoma, adherent, top dose 4 µM)”, the AUC amounted to 0.918 and the IC50 was more than 4 µM.
For “CAL-78 (chondrosarcoma, adherent, top dose 4 µM)”, in that order: 0.921 and more than 4 µM.
